Structures can show the parent of a compound that is named as a salt. Some of the results follow. Most values come without repeats; read them as rough.
What was measured:
[1] = test system: Mef2d microexon dual Nano/Firefly luciferase splicing reporter in Neuro-2a cells; assay: B-score of Firefly/Nano luminescence ratio, V1 Mef2d microexon reporter (B-score (plate-normalised)); higher = more Mef2d microexon inclusion; conditions: 24 h
[2] = test system: Mef2d microexon dual Nano/Firefly luciferase splicing reporter in Neuro-2a cells; assay: B-score of Nano/Firefly luminescence ratio, V2 Mef2d microexon reporter (B-score (plate-normalised)); higher = more Mef2d microexon inclusion; conditions: 24 h
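Wherever B-score of Nano/Firefly luminescence ratio, V2 Mef2d microexon reporter is given: compounds at 4 µM (PKI library 0.5 µM) on Dox-inducible N2A Flp-In cells with PEST-tagged luciferases, 384-well plates, B-score from per-plate median-polish residual over median absolute residual.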

Row | Structure (SMILES) | B-score [1] | B-score [2]
1 | Cc1cc(C)n(-c2ccc([N+](=O)[O-])cc2)n1 (4 µM) | -0.754 | 23.2
2 | CC(C)[C@H](CO)Nc1nc(Nc2cccc(Cl)c2)c2ncn(C(C)C)c2n1 [Purvalanol A] (4 µM) | 3.3 | 13.2
3 | O=C(Nc1ccc(Cl)cc1)ON=C1CC2CCCC(C1)N2Cc1ccccc1 (4 µM) | -3.22 | -10.8
4 | Cc1ccc(NC(=O)Nc2cc(C(F)(F)F)ccc2F)cc1Nc1ccc2c(c1)NC(=O)/C2=C\c1ccc[nH]1 [Trk Inhibitor III, GNF-5837] (0.5 µM) | 12 | 10.5
5 | O=C(c1cnn(C(=O)c2nn(-c3ccc(Cl)cc3)cc2O)c1)c1ccccc1O (4 µM) | -7.79 | -9.18
6 | Nc1ncn(C2OC(CO)C(O)C2O)c(=O)n1 (stereo unspecified) [Azacytidine-5] (4 µM) | -4.2 | -10.9
7 | Cc1ccn2c(-c3csc(Nc4ccc(N(C)C)cc4)n3)c(C)nc2c1 (4 µM) | -8.23 | -10.2
8 | NC(CCS(=O)(=O)c1ccc(Cl)cc1)=NOC(=O)c1ccccc1C(F)(F)F (4 µM) | 6.5 | 8.3
9 | COc1ccc(-c2nn(-c3ccccc3)cc2CNCCc2ccccc2)cc1 (4 µM) | -8.94 | -8.21
10 | COc1cc2/c(=N/c3ccc(Br)cc3F)nc[nH]c2cc1OCC1CCN(C)CC1 [Vandetanib, Zactima, ZD6474, AZD-6474] (0.5 µM) | -4.5 | -2.81
11 | Cc1cc(Sc2nnc(N=CN(C)C)s2)c2ccccc2n1 (4 µM) | -2.12 | -11
12 | COc1ccc(OC)c(C(=O)c2cc(OC)c(OC)c(OC)c2)c1 (4 µM) | -7.55 | -7.66
13 | C=CCSc1nnc(-c2ccc(C(C)(C)C)cc2)n1-c1ccc(Cl)cc1 (4 µM) | 5.4 | 2.69
14 | CC(C)(C)c1cc2nc(C(F)(F)F)cc(N3CCN(C(=O)Nc4ccccc4)CC3)n2n1 (4 µM) | 2.36 | 4.14
15 | Cc1csc(-c2nnc(Nc3ccc(Oc4ncccc4-c4ccnc(N)n4)cc3)c3ccccc23)c1 (0.5 µM) | -1.94 | -5.56
16 | Cc1ccc(Oc2c([N+](=O)[O-])cc(C(F)(F)F)cc2[N+](=O)[O-])c(C)c1 (4 µM) | 8.26 | 1.78
17 | CSc1sc(C(=O)Nc2cccc(C(F)(F)F)c2)c2c1S(=O)(=O)N(C)c1ccccc1-2 (4 µM) | 3.67 | 3.88
18 | CSC1=N/C(=C\c2ccc([N+](=O)[O-])s2)C(=O)N1CCOc1ccc(Cl)cc1 (4 µM) | 10.8 | 6.74
19 | CN1CCN(c2ccc(OC(F)(F)F)c(Nc3ncc4c(n3)-c3c(c(C(N)=O)nn3CCO)CC4)c2)CC1 (0.5 µM) | -7.5 | -7.41
20 | Cc1onc(-c2cccc(Cl)c2Cl)c1C(=O)ON=C(N)c1ccc([N+](=O)[O-])o1 (4 µM) | 3.46 | 5.23
21 | N#CC(=NNc1cc(C(F)(F)F)ccc1OCC(F)(F)F)S(=O)(=O)c1ccccc1 (4 µM) | 21 | 3.32
22 | O=C1Nc2ccccc2/C1=C/c1c[nH]nc1-c1ccccc1[N+](=O)[O-] (4 µM) | 4.47 | 7.6
23 | Cn1cnc([N+](=O)[O-])c1Sc1ncnc2[nH]cnc12 [Azathioprine] (4 µM) | -9.44 | -7.73
24 | COC(=O)c1sc(S(C)(=O)=O)c2c1CC(C)(C)CC2=O (4 µM) | -0.744 | -5.34

Row | Structure (SMILES) | B-score [1] | B-score [2]
25 | N#Cc1c(Cl)c(Cl)c(Cl)c(Cl)c1C#N (4 µM) | -17.7 | 6.26
26 | O=C(c1ccc(Cl)cc1)C(CN1CCOCC1)c1ccccc1 (stereo unspecified) (4 µM) | -4.41 | -7.13
27 | CCn1c(=O)cc(OCC(=O)Nc2ccc(Cl)cn2)c2ccccc21 (4 µM) | -2 | -4.6
28 | CCOC(=O)c1cnn2c1nc(N1CCCC1)c1ccccc12 (4 µM) | 4.52 | 0.538
29 | Oc1cc2c(cc1O)CN(C(=S)NCCc1ccc(Cl)cc1)CCC2 [Capsazepine] (4 µM) | -4.11 | -9.25
30 | COc1ccc(C)cc1C(=O)CCC(=O)Nc1nc2ccccc2[nH]1 (4 µM) | -0.075 | -8.59
31 | O=C(Nc1ncc(Cc2ccc(F)c(F)c2)s1)c1ccc(-n2cccn2)nc1 (4 µM) | -8.86 | -2.95
32 | CC1=CC(=O)C=C(C)C1=NOC(=O)c1ccccc1Br (4 µM) | -1.42 | -1.91
33 | O=C(c1ccc(F)cc1)C1CCN(CCCCc2ccccc2)CC1 [4-(4-Fluorobenzoyl)-1-(4-phenylbutyl)-piperidine oxalate] (4 µM) | 21.2 | 7.37
34 | CC1=C(c2ccccc2)C(=NOS(=O)(=O)c2ccc(C)cc2)CC1 (4 µM) | 0.759 | 3.55
35 | Oc1ccc(-c2ccc(-c3cc(Nc4ccc(CNC5CC5)cc4)n[nH]3)cc2)c(O)c1 [TCS 2312 dihydrochloride, TCS-2312] (0.5 µM) | -4.91 | -7.25
36 | O=C(C=C(C(=O)c1ccccc1)c1ccccc1)c1ccc2c(c1)OCCO2 (4 µM) | -4.57 | -2.36
37 | CS/C(Nc1ccccc1)=C(/C#N)C(=O)c1cc(-c2ccccc2)c(C(F)(F)F)s1 (4 µM) | 2.54 | 5.29
38 | CCOC(=O)c1sc(N)c(C#N)c1COC(=O)c1c(CC)noc1C (4 µM) | -10.3 | -5.16
39 | N#CCSc1nsc(SCC#N)c1C#N (4 µM) | -3.54 | -4.55
40 | CCCNC(=O)Nc1ccc(OC(F)(F)F)cc1 (4 µM) | 4.72 | 1.23
41 | CC1=C/C(=N\OS(=O)(=O)c2ccccc2)C(C(C)C)=CC1=O (4 µM) | -0.863 | -5.28
42 | Oc1cccc(-c2nc(N3CCOCC3)c3sccc3n2)c1 [PI3-Kinase a Inhibitor 2] (0.5 µM) | -4.53 | -4.52
43 | COc1cc(OC)c(C(=O)CCCCN2CCC3(CC2)NC(=O)NC3=O)cc1NS(=O)(=O)c1ccc(C(F)(F)F)cc1 (4 µM) | 12.9 | 3.06
44 | CCOc1ccn(-c2ccc(F)cc2)c(=O)c1C(=O)Nc1ccc(Oc2ccnc(N)c2Cl)c(F)c1 (0.5 µM) | 9.96 | 2.6
45 | CCc1ccc(N2C(=O)C(Cl)=C(Nc3cc(OC)ccc3OC)C2=O)cc1 (4 µM) | 3.44 | 2.88
46 | O=C(C=Cc1ccc(OC(F)(F)F)cc1)NNC(=O)c1ccc(Cl)cc1 (4 µM) | 21.2 | 1.36
47 | C[C@@H](Oc1cc(-c2cnn(C3CCNCC3)c2)cnc1N)c1c(Cl)ccc(F)c1Cl (0.5 µM) | 6.44 | 2
48 | Cc1c(C(=O)NN2CCOCC2)nn(-c2ccc(Cl)cc2Cl)c1-c1ccc(I)cc1 (4 µM) | 8.99 | 16

— the supplement of paper PMC11283458
